The source gives no read counts; variants with many changes may rest on few reads.
B1: LINE1-mini (parent)
chain: GGCAGAGCUCAACACAGCGUGGCAAAGUGGCUGUGGCUAGACUGCC

Variants of: B1
Assay: self-cleavage, relative activity (ratio to wild type); higher = more cleavage; in vitro, sequencing; the parent is a self-cleaving ribozyme

Row | Variant | self-cleavage
1 | GGCAGAACUCAACACACCGGGGCAAAGUGCCUGUGGCUAGACUGCC | 0.16
2 | GGCAGAACUCAACACAUCGUGGGCAAGUGCCUGUGGCUAGACUGCC | 0.03
3 | GGCAGAACUCAACACAGCGUGGUAAAGUGGUUGUGUCUAGACUGCC | 0.02
4 | GGCAGAACUCAACACACCGUGGCAAAUUGGCUGUGGCUAGACUGCC | 0.19
5 | GGCAGAACUCAACACAGGGUGGCAAAGUGGCUGUGGCUAUACUGCC | 0.19
6 | GGCAGAACUCAACACAUGGUGGCAAAGUGGCUGUGGCUAGAGUGCC | 0.18
7 | GGCAGAACUCAACACAGCGUGGCAAAGUGGGUGUGGAUAGACUGCC | 0.11
8 | GGCAGAACUCAACACAGCGUGGGAAAGUGGCUGUGGCUAGACUCCC | 0.34
9 | GGCAGAACUCAACACAGCGUGGAAAAAUGGCUGCGGCUAGAGUGCC | 0.08
10 | GGCAGAACUCAACACAGCGUGGAAAACUGGCUGUGGCUAGACUGCC | 0.13
11 | GGCAGAACUCAACACAGCAUUGCAAAGUGGCUGUGGCUAGACUGCC | 0.06
12 | GGCAGAACUCAACACAGCAUGGCAAAGUGGCUGUGGCUAGACUGCA | 0.08
13 | GGCAGAACUCAACACAACGUGGCAAAGUGACUGUGGCUAGACUGGG | 0.03
14 | GGCAGAACUCAACACACCGCGGCAAAGUGGCUGUGGCUAGACUGCC | 0.05
15 | GGCAGAACUCAACACAGCGUGGCAAAGUGGCUGUGGUUAGACAGCC | 0.03
16 | GGCAGAACUCAACACAACGUGGCAAAGGGGCUGUGGCUAGACUUCC | 0.08
17 | GGCAGAACUCAACACAGCUUGGCAAAGUUGCUAUGGCUCGAGUGAC | 0.04
18 | GGCAGAACUCAACACAUCGUGGCAAAGUGGCUUUGGCUAGACUGCC | 0.13
19 | GGCAGAACUCAACACAGUGUGGGAAAGCGGCUGUGGCUAGACUGCU | 0.07

Row | Variant | self-cleavage
20 | GGCAGAACUCAACACAGCCUCGCAAACUGGCUGUGGCAAGACUGCC | 0.02
21 | GGCAGAACUCAACACAGUGUGGCAAUGUGGCUGUUGCUAGACUGCC | 0.04
22 | GGCAGAACUCAACACAGCGUGGCAAAGUGGAUGUGGCUAGACUGCA | 0.08
23 | GGCAGAACUCAACACAGCAUGGCAAAGUGCGUGUGGCUAGACUGCC | 0.04
24 | GGCAGAACUCAACACAGUGUGGCAAAGUGGCUGUGACUAGACUGAC | 0.09
25 | GGCAGAACUCAACACAUCGUGGCAAAGUGGCUGUGGCUAUACUGCC | 0.19
26 | GGCAGAACUCAACACAACGUGGGAAAGUGGCUGUGGCUAGACUGCC | 0.11
27 | GGCAGAACUCAACACAUCGUGGAAUAGUGGCUGUGGCUAGACUACC | 0.38
28 | GGCAGAACUCAACACAGCGUGGCAAAGUGGCUGUGGUUCGACUGCC | 0.05
29 | GGCAGAACUCAACACAGCGUGGCAAAGUGGUUGUGGCUCGACUGCC | 0.16
30 | GGCAGAACUCAACACAACGUGGCAAAGUGGAUGUGGCUAGACUGCC | 0.05
31 | GGCAGAACUCAACACAACGUGGCAAAGUGGUUGUGGCUAGACUGCC | 0.07
32 | GGCAGAACUCAACACAUCGUGGCAAAGUGGCUGUGGCUAGACAGCU | 0.11
33 | GGCAGAACUCAACACAACGUGGCAAAGUGGCUGUGGCUAGACUGAC | 0.17
34 | GGCAGAACUCAACACAGCCUGGCAAAGCGGCUGUGGCUAGACUGCC | 0.03
35 | GGCAGAACUCAACACAGCGUGGCAAAGUGGCUGUGGGUAUACUGCC | 0.07
36 | GGCAGAACUCAACACAGCAUGGCAAAGUGGCUUUGGCUAGACUGCC | 0.2
37 | GGCAGAACUCAACACAGCGUGGGAAAGUGUCUGUGGCUAGACUCCC | 0.03
38 | GGCAGAACUCAACACACUGUGCCAAAGUGGCUGUGGCUAGACUGCC | 0.09

Row | Variant | self-cleavage
39 | GGCAGAACUCAACACAGCGUGGAAAAGUGGCUGUAGCUAGACUGCC | 1.14
40 | GGCAGAACUCAACACAGCGUGGCAAAGUGGGUGUGGCUUGACUGCC | 0.52
41 | GGCAGAACUCAACACAGCGUGGCAAAGUGGCUGUGGCUAGAUUUCC | 0.09
42 | GGCAGAACUCAACACAGCUUGGCAAAGUGGCUGUGGCUGGACUGCC | 0.07
43 | GGCAGAACUCAACACAGCGUGGUAAAGUUGCUGUGGCUAGACUGCC | 0.03
44 | GGCAGAACUCAACACAGCGUGGCAAAGUGGAUGUGGCUAGACAGCG | 0.25
45 | GGCAGAACUCAACACAGCCUUGCAAAGUGGCUGUGGCUAGACUGGC | 0.04
46 | GGCAGAACUCAACACAGCCUGGCGAAGUGGCUGAGGCUCGACUGCC | 0.03
47 | GGCAGAACUCAACACAGCGUGGGAAGGUGGCUGUGGUUAUACUCUC | 0.06
48 | GGCAGAACUCAACACAGCAAGGCAAAGUGGCUGUGGCUAGACUGCC | 0.06
49 | GGCAGAACUCAACACAUCGUGGCAAAGGGACUGUGUCUAGACUGCC | 0.03
50 | GGCAGAACUCAACACAGCUUGGCAAAUUGGCUGUGGCUAGACGGCC | 0.02
51 | GGCAGAACUCAACACAGCGUGGAAAAGUGGCUGUGGCUUGACCGAC | 0.09
52 | GGCAGAACUCAACACAGCUUGGAAAAGUGGCUGUGGCUAGACUUCC | 0.06
53 | GGCAGAACUCAACACAGCGUGGCAAAGUGGCUGUGGCUAGAAUGCU | 0.12
54 | GGCAGAACUCAACACAGUGUGGCAAAGCGGCUGUGGCUAGACUGCC | 0.01
55 | GGCAGAACUCAACACAGCAUGGCAAAGAGGCUGUGGCUAGACUGCC | 0.24
56 | GGCAGAACUCAACACAGCUUGGCAGAGUGGCUGUGGCUAGACUGCC | 0.21

Reference: the RNAGym collection of RNA variant scans (doi:10.7554/elife.90254)
